Data: article PMC10726135
The other results are listed elsewhere or left out. At the low end of the ranking the order means little. The protein was read in a cell extract, so binding may be indirect.

The sequences below were run against T1, HNF4alpha2 (COS-7 nuclear extract) (UniProt P41235) (assay: protein-binding microarray). Settings: COS-7 nuclear extract on double-stranded Agilent 4x180k PBM; binding buffer, salt, pH and temperature not given; high values mean tight binding; double strand, one strand shown; sequences stand for … in …GCCTAGGGAGATTAGAGTATCGGTCGA.
T1 sequence: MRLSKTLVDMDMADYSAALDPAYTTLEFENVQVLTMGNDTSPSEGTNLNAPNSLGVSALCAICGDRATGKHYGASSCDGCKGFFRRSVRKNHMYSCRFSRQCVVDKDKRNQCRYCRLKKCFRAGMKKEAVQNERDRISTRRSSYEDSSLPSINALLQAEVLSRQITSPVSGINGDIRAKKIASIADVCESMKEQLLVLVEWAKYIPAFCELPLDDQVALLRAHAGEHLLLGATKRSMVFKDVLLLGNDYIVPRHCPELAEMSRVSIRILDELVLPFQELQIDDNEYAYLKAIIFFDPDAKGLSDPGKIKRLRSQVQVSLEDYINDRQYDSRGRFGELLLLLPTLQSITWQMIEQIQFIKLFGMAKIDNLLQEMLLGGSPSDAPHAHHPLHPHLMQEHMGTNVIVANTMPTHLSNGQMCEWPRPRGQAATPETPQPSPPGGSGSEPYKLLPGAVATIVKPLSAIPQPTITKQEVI

| Sequence | binding signal (log2 normalized intensity) |
| --- | --- |
| GCAGGAATGCTGAACAATTGATTTATAGCC | -1.13 |
| CCCGTGTAGACACTCATCCCTTGCACTGCT | -0.893 |
| TTCTGAGTTGCATGAATTTATCTAAGTAGA | 1.26 |
| CTGTTTGGTATCTACTCGGCAAAACGGAGA | 0.121 |
| TCGGAATGTCTGGGCAAAGGGGAGGTTATC | 0.29 |
| AGGTCAGCTTGTCCAGAGTAGGCTTGCAAG | -0.765 |
| CTCTCGTCACCTCCACCCACCCGTGCATCA | 4.68 |
| TACTTCCTTCACTCTGGGGCAATAACCCTA | -0.0505 |
| GCTCAAAATAGGCAAGACTGCCACCTACTG | -1.23 |
| CATCTGAGACTAACTGCATTTTGGAGATAA | -0.107 |
| TCAAAATATAAGGTCCAACTGACATCTGGA | 1.25 |
| GCTTTAAGAGGAATGCTTTGAGCCAGAATC | -0.81 |
| TTGAGTGACCTTGGGCCAGTCGCTTAACCT | 1.67 |
| AAAGTGGAAGAATGGGAAATTCCATCCTAG | -1.13 |
| CTTGGCCCCCGGACCCAAAGTAAACAAAGA | 3.5 |
| TCAGTGCAATCACGCCTCAAATGAGCTTTT | -1.13 |
| GCCTTGCTGCGGATCAAAGGAGCTGGGCCT | -1.1 |
| GTAAACATAGCAGAAGACCCTTGGCCTCTA | 3.42 |
| GGGCTGGCTCAGGACAGGTGAGCCCGGCAG | -1.03 |
| GTTAAGTCATTGATGAAACTCCTTCCCTTT | 1.25 |
| CCCACATCCTGTCAGACCAAGGCTGCTTAA | -1.18 |
| ATTGGGGGAGGGTAGTCTATCTCATTACTA | -1.28 |
| CTTTCCTCCCACCTTCGAGCTTCACCTTTG | 1.58 |
| AGAGAGCAATCATGCACCTGCGGATAATCA | -1.24 |

| Sequence | binding signal (log2 normalized intensity) |
| --- | --- |
| ACAACGCCAAGGACCGCCAAGGAAGCGATG | -1.15 |
| AAGAACACAGTGTAGAAGGCAAGGGTCAAG | 1.87 |
| CTGTGCTGCCCTTTGCCCTTTGGGAAGGGG | 5.8 |
| TCCTGGTCAGACTTGCCACGGAATCCCAGT | -1.09 |
| GACTAGACAGGCTTGTCGAGGACAGGATGG | -0.822 |
| GTTCCGCGGTCCGCAGCGCTGGTGGCTGCA | -0.919 |
| GCCTGGCTAAAACCCTGGCCACTCCCTGAT | -1.11 |
| CTCATGTGGTCCTAAAATTGACCTTTGATC | 10.5 |
| CTGAACAGGGTCAGTGCAATCACGCCTCAA | -1.12 |
| AACATTATGAAATCTTATCAGAAGCTTACA | -1.06 |
| TCTGTGGATGTATGTCCAGATAACTCTTGT | 1.21 |
| TCTTGCCTTTGCTCCTCAAAAACATTCCCC | 1.2 |
| TGGACAAGGAGGCTGGGCTGCATAGAAGAA | -1.19 |
| TGGCTAGTGACTCAGAGCATATGTTGACCC | 4.71 |
| CTGATAAGATTCAGAACCCATTAATTTAGC | -1.11 |
| GACAGTCTCCAAGGTTATTATATTGTGGGT | 1.9 |
| CCTCCTTAGGAAAGAGACATCTGGGAACAA | -0.873 |
| GGAGTGTCTTTCAGGAAGGAATAAAAGGCT | -1.09 |
| TATGAGATTCCCAGAGAGCTCCCCAAAGGG | -1.21 |
| AAATGGAGTGGCCTTTAGAACCGGGGAGAT | 0.804 |
| ATTAGATGATAAGGGTGAAAAGATAGCTTG | -1.15 |
| TTTCCCTAGCTTATATCCCCTGCCTGGGTC | 1.64 |
| CTGAACATAATTGCAAAATCCTTAGCAAAT | -1.21 |
